Data: PMC4336329 (PLoS ONE, 2015)
The whole screen tested about 310,000 compounds, of which about 2,200 (0.71%) showed an effect of 50% or more. The effect is printed as a negative number. The list shows a part of the results.

Biological target: human ether-à-go-go-related gene (hERG) potassium channel (human, UniProt Q12809)
Test: primary screen, population patch clamp on CHO cells stably expressing hERG

Sequence of human ether-à-go-go-related gene (hERG) potassium channel (Q12809 whole entry, looked up): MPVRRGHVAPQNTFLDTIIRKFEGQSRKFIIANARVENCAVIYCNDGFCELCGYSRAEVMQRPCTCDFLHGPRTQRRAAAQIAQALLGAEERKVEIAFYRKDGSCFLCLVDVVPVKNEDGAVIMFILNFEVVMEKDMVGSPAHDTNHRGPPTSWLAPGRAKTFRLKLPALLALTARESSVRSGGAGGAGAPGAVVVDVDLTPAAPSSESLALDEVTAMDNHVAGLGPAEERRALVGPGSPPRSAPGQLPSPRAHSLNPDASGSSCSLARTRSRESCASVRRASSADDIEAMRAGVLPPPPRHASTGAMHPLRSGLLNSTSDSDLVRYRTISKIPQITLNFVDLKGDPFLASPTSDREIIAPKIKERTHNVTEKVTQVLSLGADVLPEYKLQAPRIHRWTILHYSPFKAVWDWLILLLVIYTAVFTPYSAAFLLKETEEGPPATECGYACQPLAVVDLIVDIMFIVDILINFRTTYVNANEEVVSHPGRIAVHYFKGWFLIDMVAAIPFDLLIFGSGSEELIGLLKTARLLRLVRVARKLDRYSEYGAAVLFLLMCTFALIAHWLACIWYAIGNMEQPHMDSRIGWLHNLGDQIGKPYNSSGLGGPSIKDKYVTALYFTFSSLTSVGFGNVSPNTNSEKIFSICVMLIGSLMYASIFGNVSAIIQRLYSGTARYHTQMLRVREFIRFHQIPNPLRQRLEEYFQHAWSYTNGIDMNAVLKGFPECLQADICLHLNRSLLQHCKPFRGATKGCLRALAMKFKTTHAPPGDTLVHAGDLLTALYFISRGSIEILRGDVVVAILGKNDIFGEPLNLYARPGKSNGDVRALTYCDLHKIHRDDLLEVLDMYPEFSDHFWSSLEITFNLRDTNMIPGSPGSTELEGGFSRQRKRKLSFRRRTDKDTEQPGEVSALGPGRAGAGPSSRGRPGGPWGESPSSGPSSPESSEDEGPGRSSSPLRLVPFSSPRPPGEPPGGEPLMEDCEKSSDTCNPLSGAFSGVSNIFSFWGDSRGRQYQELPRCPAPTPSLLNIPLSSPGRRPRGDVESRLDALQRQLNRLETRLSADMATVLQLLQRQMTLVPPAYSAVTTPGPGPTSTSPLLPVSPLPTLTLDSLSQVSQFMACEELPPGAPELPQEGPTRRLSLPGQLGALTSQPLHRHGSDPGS

In order of falling “hERG current change (%, negative = inhibition) at 1uM” value:
1. CC(C)(C)n1nc2c(c1NC(=O)c1ccccc1F)CS(=O)C2 (centres unmarked)  17%
2. CCn1nc(NC(=O)c2cccnc2)c2cc3ccccc3nc21  15.3%
3. O=c1/c(=C\c2ccc(O)cc2)sc2nc(-c3ccccc3)c(-c3ccccc3)n12  14.4%
4. CCN1CCN(C(c2cccs2)C(C)NC(=O)c2cccnc2)CC1 (centres unmarked)  14.4%
5. Cc1cc(C(F)(F)F)n2ncc(-c3ccccc3)c2n1  13.1%
6. O=C(CCn1c(=O)c2ccccc2n(CC(=O)NC2CCCC2)c1=O)NCc1ccco1  13.1%
7. Cc1ccc(-n2c(SCC(=O)c3c(N)n(C)c(=O)n(C)c3=O)nc3sc4c(c3c2=O)CCCC4)c(C)c1  13%
8. O=C1CN(C(=O)CSc2nncs2)c2ccccc2N1  12.4%
9. O=C(CCC(=O)N1CCN(c2ccccc2)CC1)Nc1nnc(C2CCCCC2)s1  11.2%
10. COc1ccccc1OCCn1c(CO)nc2ccccc21  10.9%
11. CCOC(=O)N1CCN(S(=O)(=O)N2CCCC(C(=O)NCCc3ccc(OC)c(OC)c3)C2)CC1 (centres unmarked)  10.8%
12. CN(C)/C=C1\C(=O)N(c2ccc(Cl)c(Cl)c2)CS1(=O)=O  10.8%
13. O=C(CN1C(=O)COc2ccccc21)NCCN1CCc2ccccc2C1  8.74%
14. N#CC1=C(N)SC2(CCCCC2)SC1c1ccccc1 (centres unmarked)  8.41%
15. Cc1ccc(NC(=S)NC(=O)c2cncc(Br)c2)c(C)c1  8.34%
16. COCCNC(=O)CCCCCn1c(=S)[nH]c2ccccc2c1=O  8.16%
17. Cc1cccc(Nc2nc(N)nc(CN3CCC(C(N)=O)CC3)n2)c1C  7.21%
18. Cc1ccc(NC(=O)COc2cccc(-n3cnnn3)c2)cc1S(=O)(=O)N1CCOCC1  7.14%
19. COC(=O)N/N=C/c1cc(N=Nc2ccccc2Cl)ccc1O  7.06%
20. CCN(CC)S(=O)(=O)c1ccc(C)c(NS(=O)(=O)c2cc(/C=C/C(=O)O)cc(OC)c2OC)c1  6.78%
21. C=CCn1c(CNc2ccccc2)nnc1SCC(=O)N/N=C/c1ccc(O)cc1O  6.52%
22. COC(=O)C1C(O)=C(C=NC2CCCCC2)C(=O)CC1(C)C (centres unmarked)  6.42%
23. C1CCC(Nc2nc3nonc3nc2N2CCSCC2)C1  6.28%
24. Cn1nnnc1SCc1cccc(CSc2nnnn2C)n1  6.12%
25. COc1ccc2c(c1)OC/C(=C/c1cccs1)C2=O  5.83%
26. COc1cc(C(=O)OCC(=O)Nc2ccccc2C(=O)NC2CC2)c([N+](=O)[O-])cc1OC  5.33%
27. c1ccc(NCn2cncn2)nc1  5.15%
28. CNc1nc2ccccc2n(C)c1=O  4.93%
29. CS(=O)(=O)c1ccc2nc(NC(=O)CN3C(=O)C4CC=CCC4C3=O)sc2c1 (centres unmarked)  4.39%
30. CCOC(=O)N1CCN(C(=O)CSc2nnc(-c3cccc(OC)c3)o2)CC1  3.14%
31. [O-]C1=N/[N+](=C/c2ccc(Cl)cc2)CC1  2.23%
32. CC1CCCC(NC(=O)CNC(=S)N(Cc2ccccc2)Cc2cccs2)C1C (centres unmarked)  1.61%
33. CCOc1ccc(NC(=O)CSc2nc(=O)n(CCN3CCOCC3)c3c2CCCC3)cc1  0.794%
34. CNC(=S)N(Cc1cccs1)Cc1cc2cc(OC)ccc2[nH]c1=O  0.76%
35. CC(=O)c1cccc(NC(=O)C2C3C=CC(C4CC34)C2C(=O)O)c1 (centres unmarked)  -1.56%
36. CCOc1cc(C(=O)N2CCN(C/C=C/c3ccccc3)CC2)cc(OCC)c1OCC  -3.18%
37. Cn1c(/C=C/c2ccc([N+](=O)[O-])o2)nc2ccccc2c1=O  -5.47%
38. c1ccc2c(c1)[nH]c1ccccc12  -10.3%
39. CSc1ccc(CCNC(=O)CCc2nnc3ccc(N4CCCCC4)nn23)cc1  -10.4%
40. COC(=O)C[C@H]1c2cc(C(F)(F)F)ccc2S(=O)(=O)N1c1ccc(N(C)C)cc1  -14.3%
41. COc1cccc(/C=N/n2c(SC)nnc2-c2ccccc2)c1OC  -15.2%
42. COc1ccc(OC)c(S(=O)(=O)N2CCCC(C)C2)c1 (centres unmarked)  -18.4%
43. C=CCn1c(=O)c2c(nc3n2CC(C)CN3CCc2ccccc2)n(C)c1=O (centres unmarked)  -22.1%
44. O=C(/C=C/c1ccccc1)N1CCN(Cc2nc3ccccc3c(=O)[nH]2)CC1  -37.4%
